The full ranking holds about 33,000 sequences; the median of “E-score (-0.5 to 0.5)” is about -0.012, and the highest 2% start at about 0.29. The list shows a part of the results.
biological target: T1, Ybr033w (UniProt P38073); test: PBM E-score (8-mer binding enrichment) (E-score (-0.5 to 0.5)); higher = stronger / more preferred TF binding; most listed sequences are background and not binding sites; conditions: protein concentration: 200 nM; construct: GST-full length
T1 sequence: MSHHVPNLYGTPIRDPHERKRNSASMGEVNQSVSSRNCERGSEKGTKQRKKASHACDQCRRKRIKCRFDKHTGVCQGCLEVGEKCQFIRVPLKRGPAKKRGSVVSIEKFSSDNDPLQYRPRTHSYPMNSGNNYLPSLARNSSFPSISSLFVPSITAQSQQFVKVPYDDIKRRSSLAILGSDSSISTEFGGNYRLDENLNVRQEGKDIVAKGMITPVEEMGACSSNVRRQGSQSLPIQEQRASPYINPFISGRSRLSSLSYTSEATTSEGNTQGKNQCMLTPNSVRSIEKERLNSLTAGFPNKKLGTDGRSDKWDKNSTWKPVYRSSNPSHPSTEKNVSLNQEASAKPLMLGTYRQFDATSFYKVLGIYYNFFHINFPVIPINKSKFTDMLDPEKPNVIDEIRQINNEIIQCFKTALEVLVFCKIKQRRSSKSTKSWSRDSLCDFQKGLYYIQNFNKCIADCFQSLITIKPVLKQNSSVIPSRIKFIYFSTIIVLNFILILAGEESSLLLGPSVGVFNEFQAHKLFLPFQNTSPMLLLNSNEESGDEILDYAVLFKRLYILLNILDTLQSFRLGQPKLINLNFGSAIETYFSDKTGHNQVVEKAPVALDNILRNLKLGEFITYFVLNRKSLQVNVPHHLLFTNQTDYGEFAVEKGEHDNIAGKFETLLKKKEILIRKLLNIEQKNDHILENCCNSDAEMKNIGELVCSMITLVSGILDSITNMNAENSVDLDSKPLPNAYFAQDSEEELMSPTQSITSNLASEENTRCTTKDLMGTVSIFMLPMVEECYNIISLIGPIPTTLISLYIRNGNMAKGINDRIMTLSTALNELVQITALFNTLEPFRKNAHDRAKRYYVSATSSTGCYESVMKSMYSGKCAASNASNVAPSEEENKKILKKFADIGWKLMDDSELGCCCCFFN
Method: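 Universal 'all 10-mer' protein binding microarrays (Agilent AMADID 015681) probed with GST-tagged S. cerevisiae TFs (full-length or DBD) made by in vitro transcription/translation (PURExpress), about 100-200 nM. Bound TF was detected with fluorescent anti-GST. Each ungapped 8-mer (which stands for itself and its reverse complement) is scored by the PBM enrichment score (E-score), a modified Wilcoxon-Mann-Whitney statistic from -0.5 to +0.5, computed with the Universal PBM Analysis Suite. Scale: above 0.35 generally sequence-specific binding.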

Sequence | PBM E-score
AGCGGTTC | -0.0976
ACACCTAA | 0.101
AAGCCCTC | -0.114
CTAAATGA | 0.0729
CCGCGGGC | -0.118
TCATAAAA | 0.159
ATCAAGCC | 0.0771
AAAGTGGT | 0.121
ACACATAC | 0.0431
AAACCGAC | 0.054
GCTCTTCC | 0.0199
CAAAACGG | -0.00109
CCTAACCG | -0.183
ATCTCTGA | 0.0872
ACACTGAG | 0.0232
CGTGCCGC | -0.281
ATTCATCG | -0.0554
ACTTGAAG | 0.0311
GCTATTAC | -0.0504
GGTCAGTA | -0.01
GGATGCCA | -0.167
GGGAATAC | -0.0369

Sequence | PBM E-score
TAGCACTA | -0.0865
CCACTTGA | -0.0116
ACAGTCTA | -0.0363
CGGGGCTC | -0.168
AGGTAAAT | 0.133
GGTGATAA | -0.033
CGTTAATC | 0.248
CGAGGGGA | -0.179
ACCAACCT | 0.00045
ATCCCCCG | -0.129
CTAAACAA | 0.112
GGAGCAAC | -0.202
ACAGCGCT | -0.0686
CATCACCC | -0.266
AAGTTGAC | 0.128
AGCGAAGC | -0.227
GTGAAAAC | 0.105
CAAAAGCA | 0.0319
GAACCGAA | 0.138
AAATCCGG | 0.265
GGGAAACC | -0.0396
TTAATCAA | 0.258

Sequence | PBM E-score
GTACTATA | 0.208
CCGAGACC | -0.295
CAGGAAAC | -0.0534
AACTTACG | 0.103
GGACGGAC | -0.278
GATGGCAA | 0.175
AGTCCTTG | -0.0834
AGTGCCCA | -0.158
CGCCGCTA | -0.113
TAAAGCTA | 0.0949
GCAAGAAA | 0.0331
ATCGTATC | 0.111
AACTGCCG | -0.0138
CGCAAGAA | 0.174
CCGAGACG | -0.154
AATACCGG | 0.11
GCACAGTA | 0.0829
CGACTTTC | -0.0733
CATGGGAC | -0.122
GCAGGGCC | -0.355
AACGGTCA | 0.0744
GCCAGATA | 0.0301

Sequence | PBM E-score
CTAATATC | 0.196
CCGTCAGC | -0.195
ACCATCAA | 0.137
CTCACTAA | 0.0203
CCTTCGGA | 0.117
CGCTCAGA | -0.029
AACTGCCA | -0.102
AGCGCATA | -0.0211
CTTAGGTC | -0.226
ATCCCACG | -0.139
AGCATACG | -0.0246
CCTATAGC | -0.0831
ACGTCATA | 0.214
CCTCGCAG | -0.237
ACGCCAAT | 0.157
ATTGTGAG | 0.122
AATAGACG | -0.00095
CAGTCCGA | -0.12
CCTGCCCA | -0.314
CCGTGGAG | -0.327

— the supplement of paper PMC3334620
